From the BET-seq Pho4 binding data (Le et al. 2018)
The list shows a part of the results. Values were computed here from the reads of four pooled replicates and scatter widely.

Each sequence was assayed against T1, Pho4 (S. cerevisiae) (UniProt P07270) (assay: relative binding free energy (BET-seq); higher = weaker binding). Conditions: reference: library average.
T1 sequence: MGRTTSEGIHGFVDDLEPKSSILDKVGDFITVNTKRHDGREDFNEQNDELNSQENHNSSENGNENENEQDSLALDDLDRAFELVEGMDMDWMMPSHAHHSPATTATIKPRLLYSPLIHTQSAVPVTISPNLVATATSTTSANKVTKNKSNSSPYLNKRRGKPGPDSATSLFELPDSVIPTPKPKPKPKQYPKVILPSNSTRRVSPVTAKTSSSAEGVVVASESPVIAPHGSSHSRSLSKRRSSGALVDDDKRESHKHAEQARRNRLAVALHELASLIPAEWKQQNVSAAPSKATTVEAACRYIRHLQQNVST

Sequence | relative binding free energy
AGGGTCACGTGCAGGT | 0.04 kcal/mol
AGCGTCACGTGTCGAG | 0.18 kcal/mol
GTTTGCACGTGGGTTC | 0 kcal/mol
GTACGCACGTGTGTTT | 0.06 kcal/mol
TATATCACGTGAGGGC | 0.22 kcal/mol
TTCAACACGTGGGGGC | 0.09 kcal/mol
GTGTTCACGTGTGATT | 0.43 kcal/mol
GGTCGCACGTGGTGGC | -0.04 kcal/mol
CTGTTCACGTGAATTT | 0.46 kcal/mol
TAGGGCACGTGAAGTA | 0.18 kcal/mol
GGTCTCACGTGATGAT | 0.39 kcal/mol
TGCGGCACGTGATTGT | 0.15 kcal/mol
TGAGTCACGTGTTAAT | 0.1 kcal/mol
ATGTGCACGTGTCTAA | 0.05 kcal/mol
TATAGCACGTGTAAGG | -0.01 kcal/mol
TGAAACACGTGGATGG | -0.04 kcal/mol
GAATGCACGTGTTAGT | 0 kcal/mol
CTTTTCACGTGGGAAT | 0.2 kcal/mol
AGGGTCACGTGAACGG | 0.35 kcal/mol
GGGAACACGTGAAGGG | 0.34 kcal/mol
GTAGTCACGTGGCCTT | 0.12 kcal/mol
AAGTACACGTGTTTGA | 0.08 kcal/mol
ACTGTCACGTGAGGCG | 0.25 kcal/mol
AAATGCACGTGTAGAT | 0.26 kcal/mol
AGGGTCACGTGAGGTT | 0.3 kcal/mol

Sequence | relative binding free energy
TGGTTCACGTGGCGCT | 0.05 kcal/mol
AGAATCACGTGTGTTG | 0.04 kcal/mol
GGGTGCACGTGACATG | 0.06 kcal/mol
TAAAGCACGTGGAGGT | 0.03 kcal/mol
GTGATCACGTGGGCAA | 0.07 kcal/mol
GGGGGCACGTGACGTT | -0.02 kcal/mol
TTATTCACGTGCGGTC | 0.26 kcal/mol
AGGATCACGTGAGTAG | 0.3 kcal/mol
GGTAGCACGTGAGTCT | 0.18 kcal/mol
GTTATCACGTGTAATG | 0.16 kcal/mol
ATGGCCACGTGGGTAG | -0.09 kcal/mol
TGAAGCACGTGTGTGT | 0.03 kcal/mol
TGGTGCACGTGGCGTA | -0.18 kcal/mol
AGAAGCACGTGTATTG | -0.26 kcal/mol
GTCTGCACGTGTGGAG | 0.18 kcal/mol
CATTGCACGTGTATTG | -0.05 kcal/mol
TGAGTCACGTGGGATA | 0.09 kcal/mol
GGGATCACGTGTCGTG | 0.27 kcal/mol
TAGGACACGTGTTCTG | -0.06 kcal/mol
GATGACACGTGTCGGT | 0.12 kcal/mol
AGCGGCACGTGGGCTG | -0.24 kcal/mol
GGGGTCACGTGGGTAG | 0.06 kcal/mol
TTGAACACGTGAAAGG | 0.35 kcal/mol
AAGAGCACGTGTCGTA | 0.07 kcal/mol
GCCCGCACGTGTGGGG | -0.04 kcal/mol

Sequence | relative binding free energy
GTGAGCACGTGGAGCT | -0.06 kcal/mol
TCATGCACGTGTGGTT | 0.02 kcal/mol
GTGACCACGTGGGGTA | -0.21 kcal/mol
TTATGCACGTGGCTGC | -0.1 kcal/mol
AGTGTCACGTGTTTGC | -0.01 kcal/mol
GTTCTCACGTGCGTGT | 0.01 kcal/mol
CATGTCACGTGCGGGA | 0.03 kcal/mol
TGTTGCACGTGATGTT | 0.13 kcal/mol
TTTGCCACGTGTGCTT | 0.06 kcal/mol
CTGGACACGTGGAAGT | 0.1 kcal/mol
GGTTTCACGTGGCTGT | 0.22 kcal/mol
GTTATCACGTGGTCTT | 0.14 kcal/mol
GAGTGCACGTGGGAAG | -0.02 kcal/mol
GTTCGCACGTGGAAGT | -0.03 kcal/mol
TAAGGCACGTGATGAG | 0.07 kcal/mol
TAAGGCACGTGGGAGT | -0.12 kcal/mol
GAGTTCACGTGTCATG | 0.38 kcal/mol
AGAGTCACGTGGGGAC | -0.01 kcal/mol
TTCCGCACGTGAGTTG | 0.12 kcal/mol
TTAGGCACGTGTCAGA | -0.07 kcal/mol
TTTGGCACGTGGTAGC | -0.02 kcal/mol
CGGGCCACGTGGTTGC | 0.04 kcal/mol
GGGGTCACGTGGGCCA | -0.02 kcal/mol
GAGTTCACGTGTAGTA | 0.36 kcal/mol
TTTAACACGTGGTTTT | 0 kcal/mol

Sequence | relative binding free energy
TTTGACACGTGTGCAG | 0.06 kcal/mol
GTTTTCACGTGGACAT | 0.36 kcal/mol
CTTATCACGTGGTGGG | -0.01 kcal/mol
TTGATCACGTGAGAGA | 0.35 kcal/mol
AAGTGCACGTGATGCT | 0.21 kcal/mol
TTTAACACGTGTCGGT | 0.07 kcal/mol
TTCGGCACGTGTATGA | -0.01 kcal/mol
GGTGTCACGTGAATAG | 0.28 kcal/mol
AGCGGCACGTGATTGG | 0.08 kcal/mol
GTGTCCACGTGAGGGG | 0.15 kcal/mol
AGTTACACGTGAGTAT | 0.32 kcal/mol
GTTAGCACGTGTCTAT | 0.08 kcal/mol
GGTAGCACGTGTGATG | 0.15 kcal/mol
GGCTGCACGTGGTTTA | -0.1 kcal/mol
AATTTCACGTGTTGTC | 0.3 kcal/mol
GTATTCACGTGTAAGT | 0.25 kcal/mol
AATGACACGTGGGATG | 0.04 kcal/mol
TGTGGCACGTGTGCGA | -0.08 kcal/mol
TGAATCACGTGAGCGT | 0.32 kcal/mol
GGGATCACGTGGTAGA | 0.24 kcal/mol
GGAGACACGTGGGGTT | -0.13 kcal/mol
TATGCCACGTGGGAGG | -0.22 kcal/mol
TGAGGCACGTGAAGGG | 0.11 kcal/mol
TTTGACACGTGGGCTG | -0.06 kcal/mol
TTGATCACGTGGGCTT | -0.03 kcal/mol

Sequence | relative binding free energy
GGTATCACGTGGCTTT | 0.15 kcal/mol
TTTAGCACGTGGGCGT | -0.2 kcal/mol
TCGTGCACGTGTAGGT | -0.01 kcal/mol
GGAACCACGTGGAGGG | -0.1 kcal/mol
CTGAGCACGTGAAGGG | 0.23 kcal/mol
AGGTGCACGTGTGAGC | 0.07 kcal/mol
GGAGTCACGTGTGGAC | 0.19 kcal/mol
AGATACACGTGGGGAA | -0.18 kcal/mol
ATATTCACGTGTGGCG | 0.17 kcal/mol
ATGGTCACGTGCGGGA | -0.07 kcal/mol
AGGTGCACGTGGACTG | -0.05 kcal/mol
ATCGACACGTGTGGGG | 0.05 kcal/mol
CTGGACACGTGTCGGT | -0.02 kcal/mol
GAGGTCACGTGGTGGC | 0.2 kcal/mol
AGTTTCACGTGGTATC | 0.19 kcal/mol
AAGGGCACGTGCAGTA | -0.18 kcal/mol
TTAGTCACGTGATAAA | 0.19 kcal/mol
TGCCGCACGTGGAGGG | -0.23 kcal/mol
TGCCACACGTGTTGTT | 0.1 kcal/mol
TTGAGCACGTGATACT | 0.09 kcal/mol
TAGAGCACGTGTTATG | -0.06 kcal/mol
CGTGTCACGTGTTGTG | 0.14 kcal/mol
TGTAGCACGTGGAAGT | -0.13 kcal/mol
AAAGGCACGTGAGTGC | 0.19 kcal/mol
TGGTACACGTGCTTTT | 0.03 kcal/mol

Sequence | relative binding free energy
TTTGTCACGTGGCTTC | 0.01 kcal/mol
GGTAGCACGTGAAATG | 0.14 kcal/mol
GGTAACACGTGAGGGG | 0.22 kcal/mol
GGCCACACGTGTGGTG | 0.15 kcal/mol
GTATTCACGTGGGTTG | 0.18 kcal/mol
GCCTTCACGTGGTAGT | 0.3 kcal/mol
TGAAGCACGTGCTGTG | -0.15 kcal/mol
ATAATCACGTGCGTTG | 0.19 kcal/mol
GCGTACACGTGGGCTT | 0.12 kcal/mol
CAGCGCACGTGGTGGG | -0.19 kcal/mol
TGGCTCACGTGTGTAG | 0.32 kcal/mol
TATATCACGTGTAGTC | 0.07 kcal/mol
GGTTTCACGTGGGACT | 0.28 kcal/mol
TCGTTCACGTGGGGTT | 0.14 kcal/mol
ATAGTCACGTGATATT | 0.17 kcal/mol
ATTATCACGTGTGGTG | 0.19 kcal/mol
TTTGCCACGTGGTTTT | -0.16 kcal/mol
AGGGTCACGTGCCTTG | -0.09 kcal/mol
GGTAGCACGTGGGATC | -0.22 kcal/mol
GTTAACACGTGCGTTT | -0.09 kcal/mol
TGGGCCACGTGTTTAT | 0.05 kcal/mol
